Results: the supplement of paper PMC4967469

Columns and labels:
Assay in all cases: Viability of human cancer cell lines after 72 h of drug (GDSC screen)
AV-951 = compound: COc1cc2nccc(Oc3ccc(NC(=O)Nc4cc(C)on4)c(Cl)c3)c2cc1OC [AV-951]; settings: top dose 0.128 µM; top dose inferred
Description: (§1)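 Human cancer cell lines in 384-well plates, medium with 10% serum, drug for 72 h over a 256-fold dose range (nine 2-fold or five 4-fold steps up to the top dose). Adherent lines were fixed and stained with the nucleic acid dye Syto60, suspension lines read with resazurin; signal relative to control wells, capped at 0 and 100%. One two-parameter sigmoid per drug and line, fitted in a mixed model over all curves with the slope shared within a line.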

I-BET-762 = compound: CCNC(=O)C[C@@H]1N=C(c2ccc(Cl)cc2)c2cc(OC)ccc2-n2c(C)nnc21 [I-BET-762]; settings: top dose 20 µM; top dose inferred
Description: as §1

HG-6-64-1 = compound: CCN1CCN(Cc2ccc(NC(=O)c3ccc(C)c(/C=C/c4cnc5[nH]ccc5c4OC)c3)cc2C(F)(F)F)CC1 [HG-6-64-1]; settings: top dose 5.12 µM; top dose inferred
Description: as §1

PF-4708671 = compound: CCc1cncnc1N1CCN(Cc2nc3ccc(C(F)(F)F)cc3[nH]2)CC1 [PF-4708671]; settings: top dose 10 µM; top dose inferred
Description: as §1

KIN001-244 = compound: O=C(NC(COc1ccc2[nH]c(=O)[nH]c2c1)c1ccccc1)c1cccn(Cc2ccc(F)c(F)c2)c1=O [KIN001-244]; settings: top dose 20 µM; top dose inferred
Description: as §1

Trametinib = compound: CC(=O)Nc1cccc(-n2c(=O)n(C3CC3)c(=O)c3c(Nc4ccc(I)cc4F)n(C)c(=O)c(C)c32)c1 [Trametinib]; settings: top dose 1 µM
Description: as §1

MS-275 = compound: Nc1ccccc1NC(=O)c1ccc(CNC(=O)OCc2cccnc2)cc1 [MS-275]; settings: top dose 5 µM; top dose inferred
Description: as §1

Cell Line	AUC (AV-951)	IC50 (AV-951)	AUC (I-BET-762)	IC50 (I-BET-762)	AUC (HG-6-64-1)	IC50 (HG-6-64-1)	AUC (PF-4708671)	IC50 (PF-4708671)	AUC (KIN001-244)	IC50 (KIN001-244)	AUC (Trametinib)	IC50 (Trametinib)	AUC (MS-275)	IC50 (MS-275)
HDLM-2 (Hodgkin lymphoma, suspension)	0.986	> 128 nM	0.989	> 20000 nM	0.595	582 nM	0.933	> 10000 nM	0.989	> 20000 nM	0.975	> 1000 nM	0.731	1410 nM
HH (T-cell leukaemia, suspension)	0.949	> 128 nM	0.452	888 nM	0.876	> 5120 nM	0.976	> 10000 nM	0.443	831 nM	0.933	> 1000 nM	0.699	1380 nM
HOP-62 (lung adenocarcinoma, adherent)	0.984	> 128 nM	0.854	15700 nM	0.547	428 nM	0.987	> 10000 nM	0.874	19400 nM	0.438	42.4 nM	0.573	496 nM
HSC-39 (stomach, suspension)	0.964	> 128 nM	0.974	> 20000 nM	0.836	2750 nM	0.779	3510 nM	0.991	> 20000 nM	0.755	298 nM	0.832	2610 nM
HT (B-cell lymphoma, suspension)	0.987	> 128 nM	0.621	2610 nM	0.851	3440 nM	0.989	> 10000 nM	0.817	10100 nM	0.951	> 1000 nM	0.794	2090 nM
HT-144 (melanoma, adherent)	0.976	> 128 nM	0.953	> 20000 nM	0.505	330 nM	0.945	> 10000 nM	0.961	> 20000 nM	0.167	5.19 nM	0.505	323 nM
HUTU-80 (digestive system, adherent)	0.991	> 128 nM	0.946	> 20000 nM	0.577	499 nM	0.947	> 10000 nM	0.895	17000 nM	0.875	699 nM	0.775	1640 nM
IMR-5 (neuroblastoma, adherent)	0.985	> 128 nM	0.91	> 20000 nM	0.825	2440 nM	0.954	> 10000 nM	0.889	16500 nM	0.946	> 1000 nM	0.989	> 5000 nM
IST-MEL1 (melanoma, adherent)	0.972	> 128 nM	0.969	> 20000 nM	0.729	1650 nM	0.769	4500 nM	0.886	> 20000 nM	0.48	54.4 nM	0.692	1210 nM
IST-MES1 (mesothelioma, adherent)	0.98	> 128 nM	0.938	> 20000 nM	0.656	873 nM	0.902	> 10000 nM	0.911	> 20000 nM	0.985	> 1000 nM	0.813	2740 nM
IST-SL1 (small cell lung carcinoma, semi-adherent)	0.985	> 128 nM	0.561	1850 nM	0.872	5110 nM	0.953	> 10000 nM	0.818	11700 nM	0.971	> 1000 nM	0.644	795 nM
JAR (urogenital system, adherent)	0.987	> 128 nM	0.974	> 20000 nM	0.988	> 5120 nM	0.919	> 10000 nM	0.937	> 20000 nM	0.956	> 1000 nM	0.62	665 nM
JM1 (B-cell lymphoma, suspension)	0.981	> 128 nM	0.598	2230 nM	0.78	1810 nM	0.983	> 10000 nM	0.877	15200 nM	0.979	> 1000 nM	0.539	392 nM
JSC-1 (B-cell lymphoma, suspension)	0.976	> 128 nM	0.468	1020 nM	0.875	4960 nM	0.968	> 10000 nM	0.689	4210 nM	0.88	> 1000 nM	0.481	278 nM
JURL-MK1 (chronic myeloid leukaemia, suspension)	0.827	77.7 nM	0.762	7120 nM	0.051	< 20 nM	0.891	> 10000 nM	0.752	6590 nM	0.227	10.1 nM	0.686	1030 nM
JVM-2 (lymphoid neoplasm, suspension)	0.952	> 128 nM	0.788	11000 nM	0.897	> 5120 nM	0.961	> 10000 nM	0.859	> 20000 nM	0.876	> 1000 nM	0.92	> 5000 nM
JVM-3 (lymphoid neoplasm, suspension)	0.986	> 128 nM	0.889	> 20000 nM	0.985	> 5120 nM	0.963	> 10000 nM	0.917	> 20000 nM	0.766	374 nM	0.976	> 5000 nM
JiyoyeP-2003 (Burkitt lymphoma, suspension)	0.991	> 128 nM	0.675	3590 nM	0.791	2000 nM	0.929	> 10000 nM	0.867	14500 nM	0.975	> 1000 nM	0.756	1520 nM
K5 (thyroid, adherent)	0.987	> 128 nM	0.96	> 20000 nM	0.736	1450 nM	0.911	> 10000 nM	0.816	10500 nM	0.077	< 3.91 nM	0.563	460 nM

Cell Line	AUC (AV-951)	IC50 (AV-951)	AUC (I-BET-762)	IC50 (I-BET-762)	AUC (HG-6-64-1)	IC50 (HG-6-64-1)	AUC (PF-4708671)	IC50 (PF-4708671)	AUC (KIN001-244)	IC50 (KIN001-244)	AUC (Trametinib)	IC50 (Trametinib)	AUC (MS-275)	IC50 (MS-275)
KALS-1 (glioma, adherent)	0.976	> 128 nM	0.872	> 20000 nM	0.728	1850 nM	0.977	> 10000 nM	0.884	> 20000 nM	0.408	31.8 nM	0.568	514 nM
KARPAS-45 (lymphoblastic leukaemia, suspension)	0.989	> 128 nM	0.417	771 nM	0.655	795 nM	0.973	> 10000 nM	0.696	3980 nM	0.991	> 1000 nM	0.483	284 nM
KARPAS-299 (anaplastic large cell lymphoma, suspension)	0.99	> 128 nM	0.928	> 20000 nM	0.976	> 5120 nM	0.96	> 10000 nM	0.904	18800 nM	0.991	> 1000 nM	0.612	598 nM
KARPAS-422 (B-cell lymphoma, suspension)	0.979	> 128 nM	0.675	3810 nM	0.894	> 5120 nM	0.988	> 10000 nM	0.794	9080 nM	0.973	> 1000 nM	0.724	1330 nM
KE-37 (lymphoblastic leukaemia, suspension)	0.99	> 128 nM	0.574	1890 nM	0.616	614 nM	0.974	> 10000 nM	0.509	1320 nM	0.994	> 1000 nM	0.617	606 nM
KELLY (neuroblastoma, adherent)	0.989	> 128 nM	0.802	8820 nM	0.882	4580 nM	0.989	> 10000 nM	0.846	12600 nM	0.646	152 nM	0.753	1540 nM
KG-1 (acute myeloid leukaemia, suspension)	0.959	> 128 nM	0.561	1800 nM	0.475	275 nM	0.965	> 10000 nM	0.879	16700 nM	0.893	969 nM	0.783	1870 nM
KGN (ovary, adherent)	0.969	> 128 nM	0.498	1230 nM	0.581	561 nM	0.905	> 10000 nM	0.794	11500 nM	0.776	486 nM	0.718	1500 nM
KINGS-1 (glioma, adherent)	0.973	> 128 nM	0.917	> 20000 nM	0.653	1000 nM	0.939	> 10000 nM	0.847	> 20000 nM	0.791	653 nM	0.784	3030 nM
KM12 (large intestine, adherent)	0.955	> 128 nM	0.87	> 20000 nM	0.726	1500 nM	0.964	> 10000 nM	0.907	> 20000 nM	0.869	> 1000 nM	0.738	1600 nM
KM-H2 (Hodgkin lymphoma, suspension)	0.986	> 128 nM	0.992	> 20000 nM	0.893	4440 nM	0.809	4270 nM	0.873	14400 nM	0.992	> 1000 nM	0.764	–
KMOE-2 (acute myeloid leukaemia, suspension)	0.989	> 128 nM	0.622	2610 nM	0.798	2150 nM	0.973	> 10000 nM	0.824	10200 nM	0.028	< 3.91 nM	0.777	1800 nM
KNS-42 (glioma, adherent)	0.982	> 128 nM	0.946	> 20000 nM	0.711	1430 nM	0.946	> 10000 nM	0.929	> 20000 nM	0.964	> 1000 nM	0.949	> 5000 nM
KNS-81-FD (glioma, adherent)	0.968	> 128 nM	0.894	> 20000 nM	0.942	> 5120 nM	0.892	> 10000 nM	0.9	> 20000 nM	0.728	359 nM	0.836	> 5000 nM
KS-1 (glioma, adherent)	0.979	> 128 nM	0.827	16500 nM	0.701	1370 nM	0.941	> 10000 nM	0.896	> 20000 nM	0.336	19.4 nM	0.654	930 nM
KU812 (chronic myeloid leukaemia, suspension)	0.984	> 128 nM	0.284	327 nM	0.34	120 nM	0.931	> 10000 nM	0.134	102 nM	0.109	3.94 nM	0.764	1660 nM
KURAMOCHI (ovary, adherent)	0.98	> 128 nM	0.861	> 20000 nM	0.63	777 nM	0.976	> 10000 nM	0.908	> 20000 nM	0.878	> 1000 nM	0.714	1400 nM
KY821 (leukaemia, suspension)	0.992	> 128 nM	0.976	> 20000 nM	0.982	> 5120 nM	0.976	> 10000 nM	0.962	> 20000 nM	0.89	893 nM	0.982	> 5000 nM

The IC50 comes from the fitted curve, where viability falls to half of the control; fits outside the tested doses are given as limits. The AUC spans the tested range (256-fold, ending at the top dose) of the same fit; it is 1 without any effect and falls as sensitivity rises. For some of these results: Where the top dose is marked as inferred, it was derived from the fitted curves, not read from the paper.
